# This list was built around the results that the source calls inconclusive (neither active nor inactive); the mix of calls is not that of the screen. For some of these results: Potencies of inconclusive entries are doubtful fits and often do not repeat. Calls of active or inactive are those of the source. Calls follow the shape of the dose curve; as a rule, active = well fitted curve in the direction sought with a large enough effect; inconclusive = small, poorly fitted or top-dose-only effect, or another doubt; inactive = no such curve, though single readings can be large; an effect the other way counts as inactive or inconclusive.
# Legend:
# [1] = qHTS for Inhibitors of Plasmodium falciparum (DD2) proliferation (AID 504314);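 also: parasite DNA measured by SYBR Green fluorescence after red cell lysis; plate controls were DMSO vehicle for no effect and artemisinin wells for full effect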; conditions: P. falciparum Dd2 in erythrocytes, SYBR Green growth, 72 h; activity, negative = inhibition: at 6.11 µM (top of the series)
# In short: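 Infected RBCs, 0.3% parasitemia, 2.5% Hct; compound 72 h, 37C/5% CO2; lyse + SYBR Green I, RT overnight, dark; read ex485/em535; normalize to DMSO and artemisinin 0.29 uM.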
# [2] = molecular target: Vitamin D3 receptor (Homo sapiens) (UniProt P11473); experiment: qHTS for Inhibitors of the vitamin D receptor (VDR): Hit Validation using a Fluorescein Assay (AID 602200); conditions: VDR-coactivator binding, fluorescein fluorescence polarization; series mostly up to 57.1 µM; also: potency is read from the fitted curve at half-maximal effect
# UniProt P11473, sequence (P11473 whole entry, looked up, the tested form may be a part): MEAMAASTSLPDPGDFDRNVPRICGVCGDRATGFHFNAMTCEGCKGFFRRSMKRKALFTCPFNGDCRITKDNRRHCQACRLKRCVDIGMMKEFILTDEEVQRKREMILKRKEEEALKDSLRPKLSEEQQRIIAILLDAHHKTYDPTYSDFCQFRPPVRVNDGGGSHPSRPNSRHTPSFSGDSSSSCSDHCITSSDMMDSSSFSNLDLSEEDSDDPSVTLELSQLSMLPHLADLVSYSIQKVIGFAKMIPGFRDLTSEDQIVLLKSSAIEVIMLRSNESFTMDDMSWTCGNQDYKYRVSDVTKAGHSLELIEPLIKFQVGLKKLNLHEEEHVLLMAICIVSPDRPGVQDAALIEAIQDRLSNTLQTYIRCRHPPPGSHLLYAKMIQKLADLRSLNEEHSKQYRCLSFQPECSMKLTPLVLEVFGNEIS
# In short: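 Fluorescence polarization: 1.5 uM VDR-LBD, 5 uM LG19078 and 5 nM fluorescein-labeled SRC2-3 peptide (final) with compounds, 2 h at room temperature. Read at Ex 495/Em 520 nm; peptide-only wells served as control.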
# [3] = qHTS for Inhibitors of the vitamin D receptor (VDR): Hit Validation using a Texas Red Assay (AID 602201); conditions: VDR coregulator binding, Texas Red fluorescence polarization, agonist-bound VDR ligand-binding domain; series mostly up to 57.1 µM; also: potency is read from the fitted curve at half-maximal effect
# In short: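 Fluorescence polarization with 1.5 uM VDR-LBD, LG19078 and 7 nM Texas Red (final). After 2 hours at ambient temperature, read at Ex 595 nm/Em 615 nm.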
# [4] = molecular target: Vitamin D3 receptor (Homo sapiens) (UniProt P11473); experiment: qHTS for Inhibitors of the vitamin D receptor (VDR): Hit Validation using a Beta-Lactamase Assay (AID 602202); conditions: VDR beta-lactamase reporter cells, FRET ratio, cells co-treated with VDR agonist LG190178; series mostly up to 46.1 µM; also: potency is read from the fitted curve at half-maximal effect
# In short: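 Stably transfected HEK293 cells expressing VDR-GAL4 DNA-binding domain fusion with UAS-driven beta-lactamase reporter, activated by agonist LG190178; compounds incubated 18 h, then FRET beta-lactam substrate 2 h; cleaved substrate read at 447 nm emission.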
# [5] = qHTS for Inhibitors of the vitamin D receptor (VDR): Hit Validation using a Cytotoxicity Assay (AID 602204); conditions: cytotoxicity counter-screen, cell viability; series mostly up to 48.3 µM;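 also: cells co-treated with VDR agonist LG190178 at 300 nM; potency is read from the fitted curve at half-maximal effect; nearly all actives have a fitted effect of over 75% in size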
# In short: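 Cytotoxicity counterscreen measuring cellular ATP by CellTiter-Glo luminescence. Cells (20,000/well) plated 4 hours before compound addition, then exposed for 18 hours. Cycloheximide at high concentration as positive control, DMSO as negative.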
# [6] = molecular target: Bifunctional 3'-5' exonuclease/ATP-dependent helicase WRN (Homo sapiens) (UniProt Q14191); experiment: qHTS for Inhibitors of WRN Helicase: Confirmatory Assay for Cherry-picked Compounds. (AID 720497); conditions: WRN helicase DNA unwinding, fluorescence kinetic; series mostly up to 57.1 µM; also: potency is read from the fitted curve at half-maximal effect; nearly all actives have a fitted effect of over 65% in size
# UniProt Q14191, sequence (Q14191 whole entry, looked up): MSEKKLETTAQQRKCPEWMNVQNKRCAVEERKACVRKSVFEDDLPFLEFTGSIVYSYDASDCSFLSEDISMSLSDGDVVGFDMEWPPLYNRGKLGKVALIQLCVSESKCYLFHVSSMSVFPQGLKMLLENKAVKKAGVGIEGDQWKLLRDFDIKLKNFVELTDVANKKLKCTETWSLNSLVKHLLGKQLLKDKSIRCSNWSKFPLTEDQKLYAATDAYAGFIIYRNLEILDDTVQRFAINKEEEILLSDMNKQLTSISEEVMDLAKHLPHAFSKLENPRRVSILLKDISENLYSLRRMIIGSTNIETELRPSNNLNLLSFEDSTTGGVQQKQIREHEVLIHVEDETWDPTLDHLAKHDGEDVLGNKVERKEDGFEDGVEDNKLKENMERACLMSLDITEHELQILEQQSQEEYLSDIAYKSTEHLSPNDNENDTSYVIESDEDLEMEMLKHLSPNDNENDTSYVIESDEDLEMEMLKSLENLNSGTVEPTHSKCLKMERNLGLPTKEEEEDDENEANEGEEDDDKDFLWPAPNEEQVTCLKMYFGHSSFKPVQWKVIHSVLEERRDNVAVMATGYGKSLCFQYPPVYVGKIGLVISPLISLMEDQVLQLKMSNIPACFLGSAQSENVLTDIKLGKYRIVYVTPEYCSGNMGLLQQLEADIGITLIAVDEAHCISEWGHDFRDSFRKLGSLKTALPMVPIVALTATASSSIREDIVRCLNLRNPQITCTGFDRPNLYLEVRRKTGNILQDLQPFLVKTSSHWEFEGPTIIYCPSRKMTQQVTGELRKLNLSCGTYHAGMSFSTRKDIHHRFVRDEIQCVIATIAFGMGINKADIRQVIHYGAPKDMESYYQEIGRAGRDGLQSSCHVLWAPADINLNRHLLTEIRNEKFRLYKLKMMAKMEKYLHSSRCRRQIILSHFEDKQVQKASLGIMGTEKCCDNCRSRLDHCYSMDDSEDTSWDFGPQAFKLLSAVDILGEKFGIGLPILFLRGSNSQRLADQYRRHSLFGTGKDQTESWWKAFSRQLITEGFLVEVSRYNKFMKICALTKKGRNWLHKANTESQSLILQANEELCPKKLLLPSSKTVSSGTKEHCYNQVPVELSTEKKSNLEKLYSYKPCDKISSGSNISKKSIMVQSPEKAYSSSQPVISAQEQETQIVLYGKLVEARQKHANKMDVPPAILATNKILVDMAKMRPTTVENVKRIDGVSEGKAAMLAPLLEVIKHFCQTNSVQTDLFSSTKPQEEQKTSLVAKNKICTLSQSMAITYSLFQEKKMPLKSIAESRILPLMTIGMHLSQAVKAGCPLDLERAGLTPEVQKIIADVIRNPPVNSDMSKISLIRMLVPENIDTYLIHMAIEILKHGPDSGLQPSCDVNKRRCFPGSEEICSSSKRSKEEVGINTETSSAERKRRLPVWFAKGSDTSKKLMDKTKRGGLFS
# In short: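 Confirmatory retest of cherry-picked hits in 1536-well format. Enzyme (20 nM final) sat with compound for 15 min at room temperature before forked duplex substrate (100 nM) and ATP (2 mM) were added, and unwinding was followed kinetically by red fluorescence.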
# [7] = molecular target: DNA polymerase iota (Homo sapiens) (UniProt Q9UNA4); experiment: qHTS for Inhibitors of Polymerase Iota: Confirmatory Assay for Cherry-picked Compounds (AID 720496); conditions: Pol iota primer extension, TAMRA/BHQ fluorescence; also: potency is read from the fitted curve at half-maximal effect
# UniProt Q9UNA4, sequence (Q9UNA4 whole entry, looked up): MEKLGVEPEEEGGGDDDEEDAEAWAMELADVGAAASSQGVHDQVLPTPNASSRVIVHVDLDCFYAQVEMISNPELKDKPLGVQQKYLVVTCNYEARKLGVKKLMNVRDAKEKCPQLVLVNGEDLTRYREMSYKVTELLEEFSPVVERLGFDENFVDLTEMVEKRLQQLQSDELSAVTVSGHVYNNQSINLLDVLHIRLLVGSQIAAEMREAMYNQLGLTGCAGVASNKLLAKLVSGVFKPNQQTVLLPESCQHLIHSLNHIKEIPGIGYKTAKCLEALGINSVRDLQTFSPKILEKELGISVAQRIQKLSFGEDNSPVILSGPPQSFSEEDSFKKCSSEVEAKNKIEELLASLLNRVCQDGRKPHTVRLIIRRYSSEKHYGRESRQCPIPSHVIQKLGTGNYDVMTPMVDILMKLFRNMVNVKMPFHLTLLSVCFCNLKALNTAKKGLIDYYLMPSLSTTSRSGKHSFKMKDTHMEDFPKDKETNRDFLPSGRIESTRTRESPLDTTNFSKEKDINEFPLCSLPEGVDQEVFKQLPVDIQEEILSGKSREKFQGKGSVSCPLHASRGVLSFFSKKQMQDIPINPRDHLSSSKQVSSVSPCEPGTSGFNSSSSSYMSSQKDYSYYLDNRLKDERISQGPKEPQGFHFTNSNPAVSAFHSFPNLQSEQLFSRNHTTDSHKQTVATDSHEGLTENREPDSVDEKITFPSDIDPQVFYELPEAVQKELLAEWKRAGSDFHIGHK
# In short: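 Step 1: 10 nM Pol iota with compound, 15 min, room temperature. Step 2: 50 nM final quenched DNA substrate added. Step 3: fluorescence (ex 525, em 598 nm) read at 0 and after 10 min.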
# [8] = qHTS for Inhibitors of WRN Helicase: Thiazole Orange DNA Binding Counterscreen (AID 720499); conditions: thiazole orange DNA binding displacement, fluorescence; series mostly up to 57.1 µM;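 also: drop in dye fluorescence marks compound binding to DNA; potency is read from the fitted curve at half-maximal effect; nearly all actives have a fitted effect of over 60% in size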
# In short: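 Fluorescence at 530 nm (excitation 480 nm) is measured after compounds incubate 15 min at room temperature with unlabeled DNA (50 nM) bound to thiazole orange (100 nM). Decreased signal indicates nonspecific DNA binding.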
# [9] = molecular target: Rap guanine nucleotide exchange factor 3 (Homo sapiens) (UniProt O95398); experiment: Counterscreen qHTS for agonist of cAMP-regulated guanine nucleotide exchange factor 3 (EPAC1) (AID 1645889); conditions: EPAC1 Rap1B-BODIPY-GDP exchange, fluorescence; activation: at 154 µM (top of the series) unless noted; also: nearly all actives have a fitted effect of over 40% in size; also: potency is read from the fitted curve at half-maximal effect; as to activation: % of control where 0% means no effect
# UniProt O95398, sequence (O95398 whole entry, looked up): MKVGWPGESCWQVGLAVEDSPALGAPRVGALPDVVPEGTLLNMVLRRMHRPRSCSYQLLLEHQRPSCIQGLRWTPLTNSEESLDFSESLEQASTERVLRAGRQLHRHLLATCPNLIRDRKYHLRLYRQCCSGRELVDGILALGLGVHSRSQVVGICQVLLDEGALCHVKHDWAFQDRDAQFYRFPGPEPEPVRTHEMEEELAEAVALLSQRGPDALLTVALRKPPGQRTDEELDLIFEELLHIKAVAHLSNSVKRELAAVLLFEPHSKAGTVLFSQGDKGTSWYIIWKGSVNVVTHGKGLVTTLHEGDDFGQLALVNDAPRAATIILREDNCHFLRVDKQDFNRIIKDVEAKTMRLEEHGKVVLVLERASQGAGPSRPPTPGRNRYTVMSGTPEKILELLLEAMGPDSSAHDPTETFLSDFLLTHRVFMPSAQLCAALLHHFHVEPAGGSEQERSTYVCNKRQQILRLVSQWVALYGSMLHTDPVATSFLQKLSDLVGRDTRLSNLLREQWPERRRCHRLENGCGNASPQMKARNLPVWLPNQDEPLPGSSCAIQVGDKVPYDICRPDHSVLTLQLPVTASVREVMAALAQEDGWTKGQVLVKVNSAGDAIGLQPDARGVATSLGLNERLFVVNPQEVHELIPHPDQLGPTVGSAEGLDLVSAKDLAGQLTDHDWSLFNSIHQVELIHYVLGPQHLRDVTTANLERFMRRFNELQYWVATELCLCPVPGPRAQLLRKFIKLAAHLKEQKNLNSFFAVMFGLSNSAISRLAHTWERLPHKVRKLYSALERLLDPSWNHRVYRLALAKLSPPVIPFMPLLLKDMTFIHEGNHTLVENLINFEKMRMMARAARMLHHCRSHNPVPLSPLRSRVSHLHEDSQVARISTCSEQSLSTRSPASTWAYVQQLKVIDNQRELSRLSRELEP
# In short: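 Rap1B–BODIPY-GDP (250 nM) with 50 uM GDP; compounds pin-transferred to 9.74 nM–152 uM final (activator) or from 7.32 nM upwards (inhibitor). Fluorescence Ex/Em 480/540 nm read at 5 and 30 min, then after adding cAMP or buffer, at room temperature.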
# Tags tell the direction and shape of the fitted curve.
smiles,measurement,setting,value
CCN1C(=O)N(S(=O)(=O)C(F)(F)F)[C@@H](c2ccccc2)C(C(=O)OC)=C1C,"activity, negative = inhibition",[1],inactive: 1.84% [at 1.12 µM]
O=C(O)CSc1cc(NS(=O)(=O)c2ccc(Cl)cc2)c2ccccc2c1O,Potency,[2],"inconclusive: 35.5 µM [inhibitor, single point]"
same,Potency,[3],"inconclusive: 4.47 µM [inhibitor, partial curve, poor fit]"
same,Potency,[4],"inconclusive: 29.1 µM [inhibitor, single point]"
same,Potency,[5],"inconclusive: 12.6 µM [cytotoxic, single point]"
same,Potency,[6],"inconclusive: 27.1 µM [inhibitor, partial curve]"
O=C1NN(c2ccccc2)C(=O)/C1=C\c1ccc(-c2cc([N+](=O)[O-])ccc2O)o1,Potency,[7],"inconclusive: 84.4 µM [inhibitor, partial curve]"
O=C1OC(c2ccc3ccccc3c2O)(c2ccc3ccccc3c2O)c2ccccc21,Potency,[6],"inconclusive: 34.1 µM [inhibitor, single point]"
same,Potency,[8],active: 24.1 µM
CCOC(=O)Cc1nn(Cc2ccccc2)c(=O)c2ccccc12,Potency,[9],"inconclusive: 0.0398 µM [activator, full curve, poor fit]"
O=S(=O)(NCc1ccco1)c1ccc(Cl)cc1Cl,activation,[9],inconclusive: 31.5% [activator] [at 30.8 µM]
COc1ccc2c(c1)CCc1c(C(=O)N3CCCc4ccccc43)noc1-2,activation,[9],inconclusive: 31.6% [activator]
COc1ccc(C(=O)NCC2(c3ccccc3)CCCC2)c(OC)c1,Potency,[9],"inconclusive: 0.316 µM [activator, full curve, poor fit]"
